Experimental data published in article PMC8691596.
A number of entries come with more than one value. They are shown here; other results are not. The source may hold further records. The values listed for one entry seem to repeat one measurement; one of them may be the mean.

Molecular target: human FcγRI (CD64), histidine-tagged recombinant (human) (UniProt P12314)
Test: SPR; His-tagged Fc receptor captured by anti-histidine antibody immobilised on CM5; antibody injected at 100 μg/mL for 1 min; response about 5 s before end of injection, blank subtracted; 25°C, HBS-EP+; Biacore T200

UniProt P12314, sequence (P12314 16-292): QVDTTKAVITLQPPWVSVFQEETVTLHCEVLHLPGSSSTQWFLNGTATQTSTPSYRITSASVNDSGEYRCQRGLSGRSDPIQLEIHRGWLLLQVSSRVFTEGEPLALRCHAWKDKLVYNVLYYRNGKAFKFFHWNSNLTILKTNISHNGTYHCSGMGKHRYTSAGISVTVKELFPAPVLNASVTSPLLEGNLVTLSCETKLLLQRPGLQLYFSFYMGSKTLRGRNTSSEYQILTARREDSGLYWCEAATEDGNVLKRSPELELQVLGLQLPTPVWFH

Substance	response
anti-CD20 IgG1 L234G/L235S/G236R (antibody)	-0.1 RU, 2.7 RU, 3.1 RU [columns of one line]
anti-CD20 IgG1 L234S/L235T/G236R (antibody)	-0.5 RU, 0.3 RU, 1.9 RU [columns of one line]
